Out of some 310,000 compounds screened, about 2,200 (0.71%) showed an effect of 50% or more. The effect is printed as a negative number. This is one part of the list.
What follows are molecules tested against human ether-à-go-go-related gene (hERG) potassium channel (human, UniProt Q12809) (assay: primary screen, population patch clamp on CHO cells stably expressing hERG).
Chain of human ether-à-go-go-related gene (hERG) potassium channel (Q12809 whole entry, looked up): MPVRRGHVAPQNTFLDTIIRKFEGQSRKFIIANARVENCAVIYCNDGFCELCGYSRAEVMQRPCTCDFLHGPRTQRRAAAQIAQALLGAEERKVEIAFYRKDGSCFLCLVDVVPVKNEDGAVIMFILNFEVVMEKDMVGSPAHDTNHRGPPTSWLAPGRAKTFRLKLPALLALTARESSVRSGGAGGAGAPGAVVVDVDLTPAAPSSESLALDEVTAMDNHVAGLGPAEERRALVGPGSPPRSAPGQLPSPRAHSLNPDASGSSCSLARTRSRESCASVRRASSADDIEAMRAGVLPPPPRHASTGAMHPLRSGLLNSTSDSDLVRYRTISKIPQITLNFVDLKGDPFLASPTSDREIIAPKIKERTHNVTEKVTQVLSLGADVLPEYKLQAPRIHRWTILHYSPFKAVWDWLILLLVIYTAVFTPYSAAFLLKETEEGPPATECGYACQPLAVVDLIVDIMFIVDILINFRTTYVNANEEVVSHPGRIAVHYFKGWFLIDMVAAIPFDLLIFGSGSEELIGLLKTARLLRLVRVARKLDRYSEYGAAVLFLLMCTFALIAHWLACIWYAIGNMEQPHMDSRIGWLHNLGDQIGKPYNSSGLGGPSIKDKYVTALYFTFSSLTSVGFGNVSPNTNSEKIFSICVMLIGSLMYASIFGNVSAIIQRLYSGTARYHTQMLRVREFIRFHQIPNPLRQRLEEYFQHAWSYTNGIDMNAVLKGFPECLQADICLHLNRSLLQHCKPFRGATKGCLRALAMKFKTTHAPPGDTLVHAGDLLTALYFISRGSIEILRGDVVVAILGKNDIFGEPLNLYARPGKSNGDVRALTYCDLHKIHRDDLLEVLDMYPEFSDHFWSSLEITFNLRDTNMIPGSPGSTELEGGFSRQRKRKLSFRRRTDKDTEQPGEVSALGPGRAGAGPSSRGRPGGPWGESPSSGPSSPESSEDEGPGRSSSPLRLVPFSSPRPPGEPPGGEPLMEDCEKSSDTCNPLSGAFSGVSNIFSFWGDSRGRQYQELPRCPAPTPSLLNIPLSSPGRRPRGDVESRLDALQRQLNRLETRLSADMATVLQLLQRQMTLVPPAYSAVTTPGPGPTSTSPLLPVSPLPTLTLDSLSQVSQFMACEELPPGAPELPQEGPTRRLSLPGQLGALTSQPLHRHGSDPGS

Structure (SMILES) | hERG current change (%, negative = inhibition) at 1uM
Cc1n[nH]c(=O)nc1N/N=C/c1ccco1 | 12%
O=C(O)CSCC(=O)NCc1c(Cl)cccc1Oc1ccccc1 | 12.7%
O=C(CNC1CCCCCC1)Nc1ccc(N2CCCC2)cc1.O=C(O)C(=O)O | 6.87%
c1ccc(C2Nc3ccccc3-c3nc4ccccc4n32)nc1 (stereo not shown) | 15.1%
O=C1c2cccc3cccc(c23)C(=O)N1CCCN(C(=O)c1cccs1)c1cccc(F)c1 | 8.98%
COc1cc2ncnc(NCc3cc(F)ccc3F)c2cc1OC | -0.534%
Cc1cccc(C)c1NC(=O)Cn1nc(-c2ccc(Cl)s2)ccc1=O | 12.1%
COc1ccccc1CNC(=O)Nc1cccs1 | 12.1%
Cc1ccc(NC(=O)CN(C)C(=O)c2cccc(Br)c2)cc1 | 4.61%
Cc1ccc(CSc2nnc(-c3cnccn3)n2C)cc1 | 14.7%
CC1CCc2c(sc3ncnc(NCCCOC(C)C)c23)C1.Cl (stereo not shown) | 2.07%
Cc1ccc(Cl)cc1N1CCN(C(=O)Cc2c(C(=O)O)[nH]c3ccc(Cl)cc23)CC1 | 22.4%
Cc1ccc(-c2cc(N)n3nc(-c4ccc(C)cc4)cc3n2)cc1 | 13.2%
C=CCOC(=O)C1=C(C)Nc2[nH]c(=O)[nH]c(=O)c2C1c1ccccc1 (stereo not shown) | 13.1%
COc1ccccc1C(=O)ON=C1c2ccccc2-c2ccccc21 | 10.5%
Cc1ccc2oc(=O)c3cc(C(=O)NCCN4CCN(C)CC4)sc3c2c1 | 2.58%
Cl.OC(COc1ccc2c(c1)OCO2)CN1CCCC1 (stereo not shown) | 5.2%
COc1ccc(-n2c(COc3cccc(C)c3)nnc2SCC(=O)NCc2ccco2)cc1 | -5.41%
CC1CN(c2nc(-c3ccccc3)nnc2-c2ccccc2)CC(C)O1 (stereo not shown) | 5.05%
CCc1nn(CC(=O)NCCCc2ccccc2)c(=O)c2cc3c(OC)cccc3n12 | 12.4%

Structure (SMILES) | hERG current change (%, negative = inhibition) at 1uM
CC(C)c1nc2cc(Cl)ccc2n(Cc2ccccc2)c1=O | 14.7%
CN(C)CCCNC(=O)Cc1ccc(Br)cc1 | 7.19%
O=[N+]([O-])c1c(NCCO)cc(N2CCC3(CC2)OCCO3)c2nonc12 | -4.1%
Cc1ccc(CNC(=O)C(=O)NCC2OCCN2S(=O)(=O)c2ccc3c(c2)OCCO3)cc1 (stereo not shown) | 8.88%
CCc1cc(C(=O)O)c(NC(=O)c2cc(OC)c(OC)c(OC)c2)s1 | 16.9%
O=C1NC(=O)/C(=C\c2ccc(Br)o2)S1 | 11.2%
CC(C(=O)NCCCc1ccccc1)c1ccc([N+](=O)[O-])cc1 (stereo not shown) | -8.85%
CN(C)C(=O)C[n+]1ccc(/C=N/O)cc1 | 9.82%
O=C(CN1CCN(S(=O)(=O)/C=C/c2ccccc2)CC1)NC(=O)NCc1ccco1 | -23.8%
COc1ccccc1NS(=O)(=O)c1c(C)nc2sccn2c1=O | -8.37%
Cc1ccc(N(C(=O)Cc2cccs2)C(C(=O)NC2CCCCC2)c2ccccn2)cc1C (stereo not shown) | 9.66%
CC(Oc1ccc(Cl)cc1Cl)C(=O)NC(=S)N1CCc2ccccc21 (stereo not shown) | 8.03%
CC(C)(C)NC(=O)NC(=O)COc1ccccc1C#N | 16.5%
Cc1nc2ccccn2c1C(=O)N/N=C/c1ccc2c(c1)OCO2 | 9.96%
NNC(=O)c1nc[nH]c1C(=O)Nc1ccccn1 | 3.38%
O=C(O)C1CCN(C(=O)COc2ccc3c(c2)oc(=O)c2ccccc23)CC1 | 13.9%
COC(=O)c1[nH]c2ccccc2c1NC(=O)Oc1ccccc1 | 8.27%
Clc1nnc2ccc(-c3ccccc3)nn12 | 12.4%
COc1cccc(CNC(=O)CCl)c1 | 4.39%
CCC(C)NC(=O)Nc1ccc(C)cc1C (stereo not shown) | 20.1%

Structure (SMILES) | hERG current change (%, negative = inhibition) at 1uM
CCN(Cc1nc2cc(Cl)ccc2c(=O)[nH]1)C(=O)C1CC(=O)N(c2cccc3ccccc23)C1 (stereo not shown) | 1.29%
COc1ccc(CC(=O)Nc2ccc(-c3ccc4nnc(C)n4n3)cc2)cc1OC | 12.3%
COC(=O)c1c(NC(=O)c2ccccc2F)sc(C(=O)N2CCOCC2)c1C | 2.83%
CCCC(=O)Nc1ccc2oc(-c3cccnc3)nc2c1 | 1.43%
COCC(C)N=C1NN=C(c2cccs2)C(CC(=O)O)S1 (stereo not shown) | 15.3%
C=CCN(C(=O)C1CSC2(C)CCC(=O)N12)c1nc(-c2ccccc2)cs1 (stereo not shown) | 6.92%
O=C1c2cccc([N+](=O)[O-])c2C(=O)N1c1ccccc1 | 2.96%
COc1ccc(CN2CCC(CO)(CCOc3ccccc3)CC2)cc1C | -77.6%
CSc1ccccc1NC(=O)CN(C)C(=O)C1CC(=O)N(C(C)c2ccccc2)C1 (stereo not shown) | 13.1%
COc1cccc(N2CCN(S(=O)(=O)c3ccc4c(c3)NC(=O)CS4)CC2)c1 | 20.6%
COc1ccc(-c2nc(C#N)c(NCc3cccnc3)o2)cc1OC | 9.8%
COc1ccc(C)cc1S(=O)(=O)Nc1ccc(-n2c(C)nc3ccccc3c2=O)cc1 | -7.5%
CCOc1ccccc1CNC(=O)c1ccc2nc(N3CCOCC3)sc2c1 | 8.5%
Cc1nc2c(o1)CCc1ccccc1C2O (stereo not shown) | 11.1%
Cc1cccc(C)c1NC(=S)N(Cc1ccco1)C1CCN(C(C)C)CC1 | 11.8%
Clc1cccc(OCCOCCN2CCNCC2)c1Cl.O=C(O)C(=O)O | 5.14%
CCCNC(=O)Nc1ccc2c(c1)nc(C)n2C | 4.83%
O=C(CSc1ccc(-c2cccs2)nn1)N1CCCCCC1 | 5.76%

— publication PMC4336329 (PLoS ONE, 2015)
